Variants at the floor of the assay are shown more often than the library holds them.

The values that follow come from the RNAGym collection of RNA variant scans (doi:10.1073/pnas.2313332121).

B1: TPR 5TU (parent)
chain: GGAUCUUCUCGAUCUAACAAAAAAGACAAAUCUGCCACAAAGCUUGAGAGCAUCUUCGGAUGCAGAGGCGGCAGCCUUCGGUGGCGCGAUAGCGCCAACGUUCUCAACUAUGACACGCAAAACGCGUGCUCCGUUGAAUGGAGUUUAUCAUG

Variants of B1 are the subject of this series. Nature of the series: polymerase ribozyme fitness, log enrichment relative to wild type (log ratio); higher = more active; in vitro selection for triplet polymerase activity. A digest of the protocol: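 PCR was used to build mutant libraries for each subunit of a heterodimeric triplet polymerase ribozyme, which were then transcribed. A single in vitro selection round, in triplicate, used a frozen incubation at −7 °C and recovered extended constructs by gel excision, streptavidin beads and RT-PCR. Fitness is the logarithm of genotype enrichment relative to wild-type enrichment, averaged over replicates with inverse-variance weights. The logarithm is base 2, and after Illumina sequencing only genotypes with ≥10 input reads and ≥1 read per output were kept.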
As to GGAUCUUCUCGAUCUAACAAAAAAGAAAAAUCUGCCACAAAGCUUGAGAGCAUAUUCGGAUGCAGAGGCGGCAGCCUUCGGUAGCGCGAUAGCGCCAACGUUCUGAACUAUGACACGCAAAACACGUGCUCCGAUGAAUGGAGGUUAUCAUG [C27A C54A G83A C105G G124A U134A U144G], the “polymerase ribozyme fitness (log ratio)” value was at most -4.2.
The result for GGAUCUUCUCGAUCUAACAAAAAAGAAAAAUCUGCCACAAAGCUUGAGAGCAUAUUCGGAUGCAGAGGUGGCAGGCUUCGGUGGCGCGAUAGCGCUAACGUUCUCAACUAUGACACGCAAAACGCGUGCUCCGUUGAAUGAAGUUUAUCAUG [C27A C54A C69U C75G C96U G141A] reads at most -4.2.
For the variant GGAUCUUCUCGAUCUAACAAAAAAGAAAAAUCUGCCACAAAGCUUGAGAGCAUCUUCGGAUGCAGAGGAGGCAGCCUUCGGUGGCGCGAUAGCGCCAACGUUCUCAACUAUGACACGCAAAACGCGUGCUCCGUUGAAUGGAGUUUAUCAUG [C27A C69A], the “polymerase ribozyme fitness (log ratio)” value was at most -4.2.
With GGAUCUUCUCGAUCUAACAAAAAAGAAAAAUCUGCCACAAAGCUUGAGAGAAUCUUCUGAUGCAGAGGCGGCAGCCUUCGGUGGCGCGAUAGCGUCAACGUUCUGAACUCUGACACGCAAAACGCGUGCUCCGCUGAAUGGGGUUUAUCAUG [C27A C51A G58U C95U C105G A110C U134C A142G] the figure was at most -4.2; with GGAUCUUCUCGAUCUAACAAAAAAGAAAAAUCUGCCACAAAGCUUGAGAGCAUCUUCGGAUGCAGAGGCGGCCGCCUUCGGUGGCGCGAUAGAGCCACCGUUCUCAACUAUGACACGCAAAACGCGUGCUCCGUUGAAUGGAGUUUAUUAUG [C27A A73C C93A A98C C149U], at most -4.2; with GGAUCUUCUCGAUCUAACAAAAAAGAAAAAUCUGCCACAAAGCUUGAGAGCAUCUUCGGGUGCAGACGCGGCAGCCUUCGGUGGCGCGAUAGCGCUAACGUUCUCAACUAUGACACGCAAAACGCGUGCUCCGUUGAAUGGAGUUUAUCAUG [C27A A60G G67C C96U], at most -4.2.
In the case of GGAUCUUCUCGAUCUAACAAAAAAGAAAAAUCUGCGACAAAGCUUGCCAGCAUCUUCGGAUGCAGAGGCGGCAGCCUUCGGUGGCGCGAUAGAGCCAACGUUCUCAACUAGGACACGCAAAACGCGUGCUCCGUUGAAUGGAGUUUAUCAUG [C27A C36G A47C G48C C93A U111G], the “polymerase ribozyme fitness (log ratio)” value was at most -4.2.
The result for GGAUCUUCUCGAUCUAACAAAAAAGAAAAAUCUGCCACAAAGCUUGAGAGCAUCUUCGGAUGCAGAGGCGGCAGCCUUCGGUGGGGCAAUAGCGCCAACGUUCUCAACUAUGACACGCAAAACGCGUGCUCCGUUGAAUGGCGUUUAUCAUG [C27A C85G G88A A142C] reads at most -4.2; that for GGAUCUUCUCGAUCUAACAAAAAAGAAAAAUCUGCCACAAAGCUUGAGAGCAUCUUCGGAUGCAGAGGCGGCAGCCUUCGGUGGCGCGAUCGCGCCAACGUUCUCAACUAUGACACGCAGAACGCGUGCUCCGUUGAAUGGACUAUAUCAUG [C27A A91C A120G G143C U145A], at most -4.2.
With GGAUCUUCUCGAUCUAACAAAAAAGAAAAAUCUGCCACAAAGCUUGAGAGCAUCUUCGGAUGCAGAGGCGGCAGCCUUCGGUGGUGCGAUAGCGCCAACGUUCUCAACUAUGACACGCAAAACGCGUGCUCCCUUGAAUGGAGUAUAUCAUG [C27A C85U G133C U145A] the figure was at most -4.2.
With GGAUCUUCUCGAUCUAACAAAAAAGAAAAAUCUGCCACAAAGUUUGAGAGCAUCUUCGGAUGCAGAGGCGGCAGCUUUCGGUGGCGCGGUAACGCCAAAGUUCUCAACUAUGACACGCAAAACGCGUGCUCCGUUGAAUGGAGAUUAUCAUG [C27A C43U C76U A89G G92A C99A U144A] the figure was at most -4.2; with GGAUCUUCUCGAUCUAACAAAAAAGAAAAAUCUGCCACAAAGCUUGAGAGCAUCUUCGGAUGCAGAGGCGGCAGCCUUUGGUGGCGCGAUAACGCCAACGUUGUCAACUAUGACACGCAAAACGCGUGCUCCGUAGAAUGGAGUUUAUCAUG [C27A C79U G92A C103G U135A], at most -4.2; with GGAUCUUCUCGAUCUAACAAAAAAGAAAAAUCUGCCACAAAGCUUGAGAGCAUUUACGGAUGCAGAGGCGGCAGCCUUCGGUGGCGGGAUAGCGCCAACGUUCUCAACCAUGACACGCAAACCGCGAGCUCCGUUGAAUGUAGUUUAUAAUG [C27A C54U U56A C87G U109C A122C U127A G141U C149A], at most -4.2.
For GGAUCUUCUCGAUCUAACAAAAAAGAAAAAUCUGCCACAAAGGUUGAGAGCAUCAUCGGAUGCAGAGGUGGCAGCCUUCGGUGGCGCGAUAGCGCCAACGUUCUCAACUAUGACACGCAAAACGCGUGCUCCGUUGAAUGGAGUUUAUCAUG [C27A C43G U55A C69U], the “polymerase ribozyme fitness (log ratio)” value was at most -4.2.
With GGAUCUUCUCGAUCUAACAAAAAAGAAAAAUCUGCCACAAAGCUUGAGAGCAUCUUCGGAUGCAGAGGCGGCAGCCUUCGGUGGAGCGAUAGCGCCAACGUUCUCAACUAUGACACGCAAAACGCGUGCUCCGUUGAAUGGAGUUUAUCAUG [C27A C85A] the figure was at most -4.2; with GGAUCUUCUCGAUCUAACAAAAAAGAAAAAUCUGCCACAAAGCUUGAGAGCAUCUUCGGGUGCAGAGGCGGCAGCCUUCGGUGGCGCGAUAGCGCCAACGUUGUCAACUAUGACACGCAAAACGCGUGCUCCGUUGAAUGGAGUUUAUCAUG [C27A A60G C103G], at most -4.2.
On to GGAUCUUCUCGAUCUAACAAAAAAGAAAAAUCUGCCACAAAGCUUGAGAGCAUUUUCGGAUGCAGUAGCGGCAGCCUUCGGUGGCUCGAUAGCGCCAACGUUCUCAACUAUGACUCGCAAAACGCGUGCUCCGUUGAUUGGAGUUUAUCAUG [C27A C54U A66U G67A G86U A115U A138U], for which the “polymerase ribozyme fitness (log ratio)” value was at most -4.2.
The result for GGAUCUUCUCGAUCUAACAAAAAAGAAAAAUCUGCCACAAAGCUUGAGAGCAUCUUCGGAUGCAGAGGCGGCAGCCUUCGGUGGUGCGAUAGCGCCAACGAUCUCAACUAUGACACGCAAAACGCGUGCUCCGUUGAAUGGAGUUUAUCAUG [C27A C85U U101A] reads at most -4.2; that for GGAUCUUCUCGAUCUAACAAAAAAGAAAAAUUUGGCACAAAGCUUGAGAGCAUGUUCGGAUGCAGAGACGGCAGCCUUCGGUGGCGCGAUAGUGCCAACGUUCUCAGUUAUGACACGCAAAACGCGUGCUCCGUUGAAUGGAGUUUAUCAUG [C27A C32U C35G C54G G68A C93U A107G C108U], at most -4.2.
